Laboratory results taken from publication PMC6570896.
These are yes or no findings as the source states them, for the method shown. Binding seen in cells or lysates may run through a third protein. Some entries that bind do so weakly or less than the wild type. For part of these data: Where a sequence is shown, tags or fusion partners need not be part of it.

By UniProt entry, the sequences of proteins in these tests, tags left out.
UniProt Q93ZX1: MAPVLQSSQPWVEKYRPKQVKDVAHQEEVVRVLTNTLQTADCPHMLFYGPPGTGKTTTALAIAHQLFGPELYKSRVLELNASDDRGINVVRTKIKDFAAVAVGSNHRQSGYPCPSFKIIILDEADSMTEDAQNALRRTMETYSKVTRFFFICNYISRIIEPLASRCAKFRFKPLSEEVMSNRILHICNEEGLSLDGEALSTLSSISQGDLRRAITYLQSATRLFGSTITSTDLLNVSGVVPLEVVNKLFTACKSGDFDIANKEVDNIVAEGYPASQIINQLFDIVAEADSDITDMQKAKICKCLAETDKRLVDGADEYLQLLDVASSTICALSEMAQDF
UniProt Q9FXM3: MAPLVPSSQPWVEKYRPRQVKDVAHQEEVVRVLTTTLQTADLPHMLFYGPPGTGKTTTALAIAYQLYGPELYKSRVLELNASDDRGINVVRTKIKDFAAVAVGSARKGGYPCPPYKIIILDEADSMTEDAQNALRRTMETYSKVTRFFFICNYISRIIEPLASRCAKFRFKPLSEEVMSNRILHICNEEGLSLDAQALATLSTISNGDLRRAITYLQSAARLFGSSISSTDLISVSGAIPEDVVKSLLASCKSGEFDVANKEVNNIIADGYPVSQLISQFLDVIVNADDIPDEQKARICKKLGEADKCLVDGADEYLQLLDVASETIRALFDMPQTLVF

T1: AtRFC2-YFP^N (Arabidopsis thaliana) (UniProt Q9CAM7)
T1 sequence: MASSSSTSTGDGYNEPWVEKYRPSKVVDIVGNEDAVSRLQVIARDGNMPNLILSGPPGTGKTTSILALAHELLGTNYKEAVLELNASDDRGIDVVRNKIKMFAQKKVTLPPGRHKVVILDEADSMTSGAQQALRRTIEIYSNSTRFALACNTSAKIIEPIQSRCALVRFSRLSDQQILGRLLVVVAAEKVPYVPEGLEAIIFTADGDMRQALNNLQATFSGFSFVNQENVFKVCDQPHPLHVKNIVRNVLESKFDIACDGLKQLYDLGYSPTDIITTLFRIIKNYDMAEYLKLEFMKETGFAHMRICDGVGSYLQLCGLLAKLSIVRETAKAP

T2: OsRFC1-YFP^N (rice (Oryza sativa)) (UniProt Q2R2B4)
T2 sequence: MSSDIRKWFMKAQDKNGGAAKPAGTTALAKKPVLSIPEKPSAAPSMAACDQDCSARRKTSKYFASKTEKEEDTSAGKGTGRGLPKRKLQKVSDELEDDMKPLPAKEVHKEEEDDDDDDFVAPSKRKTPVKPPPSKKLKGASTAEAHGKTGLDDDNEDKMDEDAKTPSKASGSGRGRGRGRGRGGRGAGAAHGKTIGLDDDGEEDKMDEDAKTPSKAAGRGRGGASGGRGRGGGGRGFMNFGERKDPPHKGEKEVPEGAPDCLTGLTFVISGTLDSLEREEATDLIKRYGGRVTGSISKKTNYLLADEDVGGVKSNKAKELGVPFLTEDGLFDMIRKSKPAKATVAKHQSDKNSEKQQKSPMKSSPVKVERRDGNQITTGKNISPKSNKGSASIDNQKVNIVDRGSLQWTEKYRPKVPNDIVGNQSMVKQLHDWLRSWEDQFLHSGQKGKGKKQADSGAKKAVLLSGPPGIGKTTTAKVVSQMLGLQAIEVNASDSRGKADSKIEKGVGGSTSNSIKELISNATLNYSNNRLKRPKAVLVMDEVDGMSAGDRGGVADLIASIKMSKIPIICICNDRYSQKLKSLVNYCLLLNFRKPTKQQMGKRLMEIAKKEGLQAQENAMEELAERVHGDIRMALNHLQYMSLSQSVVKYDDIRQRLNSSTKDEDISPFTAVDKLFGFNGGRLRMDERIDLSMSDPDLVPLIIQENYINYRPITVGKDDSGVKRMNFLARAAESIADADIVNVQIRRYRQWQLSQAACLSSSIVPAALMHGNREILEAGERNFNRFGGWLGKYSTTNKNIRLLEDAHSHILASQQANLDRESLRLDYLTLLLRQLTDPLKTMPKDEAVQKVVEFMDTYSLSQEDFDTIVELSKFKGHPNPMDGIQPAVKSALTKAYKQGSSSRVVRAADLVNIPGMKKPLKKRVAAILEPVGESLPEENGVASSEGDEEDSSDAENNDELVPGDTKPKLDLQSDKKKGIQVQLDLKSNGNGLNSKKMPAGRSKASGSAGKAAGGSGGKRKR

T3: OsRFC3-YFP^N (rice (Oryza sativa)) (UniProt Q6YZ54)
T3 sequence: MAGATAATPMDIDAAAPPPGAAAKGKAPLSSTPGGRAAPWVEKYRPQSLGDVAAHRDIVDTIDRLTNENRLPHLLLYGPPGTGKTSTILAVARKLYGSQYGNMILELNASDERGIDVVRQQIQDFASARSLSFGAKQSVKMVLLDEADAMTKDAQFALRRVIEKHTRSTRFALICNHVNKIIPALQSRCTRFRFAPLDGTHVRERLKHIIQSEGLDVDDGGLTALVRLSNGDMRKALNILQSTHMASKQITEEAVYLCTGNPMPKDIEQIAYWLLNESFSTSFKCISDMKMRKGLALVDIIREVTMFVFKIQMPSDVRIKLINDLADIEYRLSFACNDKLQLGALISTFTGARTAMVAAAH

T4: OsRFC4-YFP^N (rice (Oryza sativa)) (UniProt Q7XRX1)
T4 sequence: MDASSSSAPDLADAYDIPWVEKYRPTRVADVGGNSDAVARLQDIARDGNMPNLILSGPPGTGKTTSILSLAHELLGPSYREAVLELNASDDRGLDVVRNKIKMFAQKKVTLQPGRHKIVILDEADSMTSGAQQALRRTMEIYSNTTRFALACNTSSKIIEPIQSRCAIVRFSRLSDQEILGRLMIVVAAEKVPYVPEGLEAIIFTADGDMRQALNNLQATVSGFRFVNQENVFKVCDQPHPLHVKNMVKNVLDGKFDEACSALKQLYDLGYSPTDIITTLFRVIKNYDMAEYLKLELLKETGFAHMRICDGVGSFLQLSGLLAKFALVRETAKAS

T5: OsRFC5-YFP^N (rice (Oryza sativa)) (UniProt Q852K3)
T5 sequence: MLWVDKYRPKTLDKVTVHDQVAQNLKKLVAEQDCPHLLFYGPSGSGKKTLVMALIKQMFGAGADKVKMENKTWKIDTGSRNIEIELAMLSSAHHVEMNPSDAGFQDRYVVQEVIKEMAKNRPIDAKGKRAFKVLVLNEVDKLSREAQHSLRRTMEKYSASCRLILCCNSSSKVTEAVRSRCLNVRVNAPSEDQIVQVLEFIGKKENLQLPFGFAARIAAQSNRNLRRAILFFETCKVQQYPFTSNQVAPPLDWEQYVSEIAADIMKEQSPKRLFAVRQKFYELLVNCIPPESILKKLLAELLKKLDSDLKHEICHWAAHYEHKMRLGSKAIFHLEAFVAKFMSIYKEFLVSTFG


Key:
Test in all cases: split reporter; BiFC: fusions to YFP^N (1-155 aa) and YFP^C (156-239 aa) co-expressed transiently in Nicotiana benthamiana leaf epidermal cells; YFP seen by confocal microscopy
[1] = target: AtPCNA1 Δ224–263 (Arabidopsis thaliana) (UniProt Q9M7Q7)
[2] = target: AtPCNA1-YFP^C (Arabidopsis thaliana) (UniProt Q9M7Q7)
[3] = target: AtPCNA1 Δ1–136 (Arabidopsis thaliana) (UniProt Q9M7Q7)
[4] = target: AtPCNA2-YFP^C (Arabidopsis thaliana) (UniProt Q9ZW35)
[5] = target: T1, AtRFC2-YFP^N (Arabidopsis thaliana)
[6] = target: AtRFC4-YFP^N (Arabidopsis thaliana) (UniProt Q93ZX1)
[7] = target: OsPCNA-YFP^C (rice (Oryza sativa)) (UniProt P17070)
[8] = target: T2, OsRFC1-YFP^N (rice (Oryza sativa))
[9] = target: T3, OsRFC3-YFP^N (rice (Oryza sativa))
[10] = target: OsRFC2-YFP^N (rice (Oryza sativa)) (UniProt Q9FXM3)
[11] = target: T4, OsRFC4-YFP^N (rice (Oryza sativa))
[12] = target: T5, OsRFC5-YFP^N (rice (Oryza sativa))
[13] = target: OsPCNA Δ254–263 (rice (Oryza sativa)) (UniProt P17070)
[14] = target: AtPCNA2 Δ225–264 (Arabidopsis thaliana) (UniProt Q9ZW35)
[15] = target: AtPCNA2 Δ1–120 (Arabidopsis thaliana) (UniProt Q9ZW35)
[16] = target: AtPCNA2 Δ1–136 (Arabidopsis thaliana) (UniProt Q9ZW35)

Row | binding [2] | binding [4] | binding [5] | binding [6] | Binder | other results
1 | no binding | no binding | no binding | no binding | AtPCNA1 Δ1–136 (domain or fragment, UniProt Q9M7Q7 137-263) VRMPSNEFSRICKDLSSIGDTVVISVTKEGVKFSTAGDIGTANIVLRQNTTVDKPEDAIVIEMKEPVSLSFALRYMNSFTKATPLSDTVTISLSSELPVVVEYKVAEMGYIRYYLAPKIEEEEDTNP | binding [3]: no binding
2 | binds | binds | binds | binds | AtPCNA2 Δ1–120 (domain or fragment, UniProt Q9ZW35 121-264) IDSEHLGIPDAEYHSIVRMPSGEFSRICKDLSSIGDTVVISVTKEGVKFSTAGDIGTANIVLRQNTTVDKPEDAIVIEMNEPVSLSFALRYMNSFTKATPLSETVTISLSSELPVVVEYKVAEMGYIRYYLAPKIEEEEDTKPE | binding [15]: binds

Further lines, the binder ahead of its results:

Row | Binder | binding [2] | binding [4] | binding [5] | binding [6] | other results
3 | AtPCNA1 Δ224–263 (domain or fragment, UniProt Q9M7Q7 1-223) MLELRLVQGSLLKKVLESIKDLVNDANFDCSSTGFSLQAMDSSHVALVSLLLRSEGFEHYRCDRNLSMGMNLGNMSKMLKCAGNDDIITIKADDGGDTVTFMFESPTQDKIADFEMKLMDIDSEHLGIPDAEYHSIVRMPSNEFSRICKDLSSIGDTVVISVTKEGVKFSTAGDIGTANIVLRQNTTVDKPEDAIVIEMKEPVSLSFALRYMNSFTKATPLSD | – | – | – | – | binding [1]: no binding
4 | OsPCNA Δ254–263 (domain or fragment, UniProt P17070 1-253) MLELRLVQGSLLKKVLEAIRELVTDANFDCSGTGFSLQAMDSSHVALVALLLRSEGFEHYRCDRNLSMGMNLNNMAKMLRCAGNDDIITIKADDGSDTVTFMFESPNQDKIADFEMKLMDIDSEHLGIPDSEYQAIVRMPSSEFSRICKDLSSIGDTVIISVTKEGVKFSTAGDIGTANIVCRQNKTVDKPEDATIIEMQEPVSLTFALRYMNSFTKASPLSEQVTISLSSELPVVVEYKIAEMGYIRFYLAP | – | – | – | – | binding [7]: binds; binding [8]: binds; binding [9]: binds; binding [10]: no binding; binding [11]: binds; binding [12]: binds; binding [13]: binds
5 | AtPCNA2 Δ225–264 (domain or fragment, UniProt Q9ZW35 1-224) MLELRLVQGSLLKKVLEAVKDLVNDANFDCSTTGFSLQAMDSSHVALVSLLLRSEGFEHYRCDRNLSMGMNLGNMSKMLKCAGNDDIITIKADDGSDTVTFMFESPTQDKIADFEMKLMDIDSEHLGIPDAEYHSIVRMPSGEFSRICKDLSSIGDTVVISVTKEGVKFSTAGDIGTANIVLRQNTTVDKPEDAIVIEMNEPVSLSFALRYMNSFTKATPLSET | – | – | – | – | binding [14]: no binding
6 | AtPCNA2 Δ1–136 (domain or fragment, UniProt Q9ZW35 137-264) VRMPSGEFSRICKDLSSIGDTVVISVTKEGVKFSTAGDIGTANIVLRQNTTVDKPEDAIVIEMNEPVSLSFALRYMNSFTKATPLSETVTISLSSELPVVVEYKVAEMGYIRYYLAPKIEEEEDTKPE | no binding | no binding | no binding | no binding | binding [16]: no binding
